# Results taken from the supplement of paper PMC8728848.
# Shown is part of a subset that was picked to be rich in the strongest signals.
# What was measured:
# Assay in all cases: glycan array binding signal (z-score within array); higher = stronger binding
# Details in all cases: glycan notation: IUPAC condensed, linker removed
# [1] = system: Gal(b1-4)GlcNAc(b1-3)Gal(b1-4)GlcNAc(b1-3)Gal(b1-4)GlcNAc(b1-3)Gal(b1-4)GlcNAc(b1-2)Man(a1-3)[Gal(b1-4)GlcNAc(b1-3)Gal(b1-4)GlcNAc(b1-3)Gal(b1-4)GlcNAc(b1-3)Gal(b1-4)GlcNAc(b1-2)Man(a1-6)]Man(b1-4)GlcNAc(b1-4)[Fuc(a1-6)]GlcNAc
# Outline: (§1)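 Arrays were curated from the Consortium for Functional Glycomics database, 3228 in total, and kept only where the protein sequence was available. Binding is expressed as a within-array Z-score. This score was averaged across arrays of the same protein sequence at different concentrations or buffers and across linkers, and negative values can be read as non-binding.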
# [2] = system: Gal(b1-4)GlcNAc(b1-3)Gal(b1-4)GlcNAc(b1-3)Gal(b1-4)GlcNAc(b1-3)Gal(b1-4)GlcNAc(b1-3)Gal(b1-4)GlcNAc(b1-2)Man(a1-3)[Gal(b1-4)GlcNAc(b1-3)Gal(b1-4)GlcNAc(b1-3)Gal(b1-4)GlcNAc(b1-3)Gal(b1-4)GlcNAc(b1-3)Gal(b1-4)GlcNAc(b1-2)Man(a1-6)]Man(b1-4)GlcNAc(b1-4)GlcNAc
# Outline: as §1
# [3] = system: Gal(b1-4)GlcNAc(b1-3)Gal(b1-4)GlcNAc(b1-3)Gal(b1-4)GlcNAc(b1-3)Gal(b1-4)GlcNAc(b1-3)Gal(b1-4)GlcNAc(b1-2)Man(a1-3)[Gal(b1-4)GlcNAc(b1-3)Gal(b1-4)GlcNAc(b1-3)Gal(b1-4)GlcNAc(b1-3)Gal(b1-4)GlcNAc(b1-3)Gal(b1-4)GlcNAc(b1-2)Man(a1-6)]Man(b1-4)GlcNAc(b1-4)[Fuc(a1-6)]GlcNAc
# Outline: as §1
# [4] = system: Gal(b1-4)GlcNAc(b1-3)Gal(b1-4)GlcNAc(b1-3)Gal(b1-4)GlcNAc(b1-3)Gal(b1-4)GlcNAc(b1-3)Gal(b1-4)GlcNAc(b1-3)Gal(b1-4)GlcNAc(b1-2)Man(a1-3)[Gal(b1-4)GlcNAc(b1-3)Gal(b1-4)GlcNAc(b1-3)Gal(b1-4)GlcNAc(b1-3)Gal(b1-4)GlcNAc(b1-3)Gal(b1-4)GlcNAc(b1-3)Gal(b1-4)GlcNAc(b1-2)Man(a1-6)]Man(b1-4)GlcNAc(b1-4)GlcNAc
# Outline: as §1
# [5] = system: Gal(b1-4)GlcNAc(b1-3)Gal(b1-4)GlcNAc(b1-3)Gal(b1-4)GlcNAc
# Outline: as §1
# [6] = system: Gal(b1-4)GlcNAc(b1-3)Gal(b1-4)GlcNAc
# Outline: as §1
# [7] = system: Gal(b1-4)GlcNAc(b1-3)GalNAc
# Outline: as §1
# [8] = system: Gal(b1-4)GlcNAc(b1-3)[Gal(b1-4)GlcNAc(b1-6)]Gal(b1-4)GlcNAc
# Outline: as §1
# [9] = system: Gal(b1-4)GlcNAc(b1-3)[GlcNAc(b1-6)]Gal(b1-4)GlcNAc
# Outline: as §1
substance,measurement,setting,value
Gal 3 (Homo sapiens) (chain not printed),glycan array binding signal (z-score),[1],3.46
same,glycan array binding signal (z-score),[2],7.49
same,glycan array binding signal (z-score),[3],5.01
same,glycan array binding signal (z-score),[4],3.79
same,glycan array binding signal (z-score),[5],3.18
Meso764 (Homo sapiens) (chain not printed),glycan array binding signal (z-score),[3],4.03
same,glycan array binding signal (z-score),[4],1.71
Angiogenin (Homo sapiens) (chain not printed),glycan array binding signal (z-score),[5],0.397
Gal 8-short (Homo sapiens) (chain not printed),glycan array binding signal (z-score),[6],1.73
FGF2 (chain not printed),glycan array binding signal (z-score),[7],-0.316
Galectin-8 C-terminal CRD (Homo sapiens) (chain not printed),glycan array binding signal (z-score),[7],-0.342
L-Ficolin (Homo sapiens) (chain not printed),glycan array binding signal (z-score),[8],-0.453
MBP (Homo sapiens) (chain not printed),glycan array binding signal (z-score),[9],-0.502
